# Some of the results follow.
# B1: PhoQ; a variant is named by its letters at X, in order, P23837 (parent)
# chain: MKKLLRLFFPLSLRVRFLLATAAVVLVLSLAYGMVALIGYSVSFDKTTFRLLRGESNLFYTLAKWENNKLHVELPENIDKQSPTMTLIYDENGQLLWAQRDVPWLMKMIQPDWLKSNGFHEIEADVNDTSLLLSGDHSIQQQLQEVREDDDDAEMTHSVAVNVYPATSRMPKLTIVVVDTIPVELKSSYMVWSWFIYVLSANLLLVIPLLWVAAWWSLRPIEALAKEVRELEEHNRELLNPATTRELTSLVRNLNRLLKSERERYDKYRTTLTDLTHSLKTPLXXLQXXLRSLRSEKMSVSDAEPVMLEQISRISQQIGYYLHRASMRGGTLLSRELHPVAPLLDNLTSALNKVYQRKGVNISLDISPEISFVGEQNDFVEVMGNVLDNACKYCLEFVEISARQTDEHLYIVVEDDGPGIPLSKREVIFDRGQRVDTLRPGQGVGLAVAREITEQYEGKIVAGESMLGGARMEVIFGRQHSAPKDE
# Variants of: B1
# Assay: enrichment ratio after two sorts for PhoP signalling (ratio (wild type AVST 3.29)); higher = more functional
# Conditions: with PhoP (E. coli)
row,Variant,enrichment ratio
1,RIPP,≤ 0.25
2,DTPI,≤ 0.25
3,MALS,8.05
4,WEGC,≤ 0.25
5,LVVF,≤ 0.25
6,WGPT,≤ 0.25
7,LKER,≤ 0.25
8,HWWF,≤ 0.25
9,MTDF,≤ 0.25
10,EEIV,≤ 0.25
11,RCFN,≤ 0.25
12,IANN,≤ 0.25
13,FVYY,≤ 0.25
14,AMTK,≤ 0.25
15,VQIY,≤ 0.25
16,DQCY,≤ 0.25
17,IYTH,≤ 0.25
18,TGLT,13.5
19,FEMC,10.8
20,KDVF,≤ 0.25
21,LCRF,≤ 0.25
22,FRWF,≤ 0.25
23,VWFC,≤ 0.25
24,ANRD,≤ 0.25
25,YTFL,≤ 0.25

row,Variant,enrichment ratio
1,HICM,≤ 0.25
2,KCIR,≤ 0.25
3,AYNI,≤ 0.25
4,HKST,≤ 0.25
5,ITTP,≤ 0.25
6,ACRI,≤ 0.25
7,LMIY,≤ 0.25
8,VSCW,≤ 0.25
9,LIMT,≤ 0.25
10,NIAK,≤ 0.25
11,HQTM,2.38
12,RRAH,≤ 0.25
13,TVVP,≤ 0.25
14,PEWD,≤ 0.25
15,HFTH,≤ 0.25
16,FSWL,≤ 0.25
17,LCSS,≤ 0.25
18,QGKA,≤ 0.25
19,KEEQ,≤ 0.25
20,RYHV,≤ 0.25
21,DMKW,≤ 0.25
22,VHPP,≤ 0.25
23,WGRC,≤ 0.25
24,YAKK,≤ 0.25
25,KNNI,≤ 0.25

row,Variant,enrichment ratio
1,VDAQ,≤ 0.25
2,ERKE,≤ 0.25
3,QRAP,≤ 0.25
4,HKNF,≤ 0.25
5,HSAE,≤ 0.25
6,HMPV,≤ 0.25
7,NRNP,≤ 0.25
8,AIMS,14.3
9,FLGV,≤ 0.25
10,ACKR,≤ 0.25
11,HKGQ,≤ 0.25
12,NSWP,≤ 0.25
13,RNGD,≤ 0.25
14,RLTM,≤ 0.25
15,PCCN,≤ 0.25
16,YKLR,≤ 0.25
17,DVCH,≤ 0.25
18,VMII,≤ 0.25
19,DPCV,≤ 0.25
20,VQHF,≤ 0.25
21,QRFW,≤ 0.25
22,TVQW,≤ 0.25
23,DDTT,≤ 0.25
24,HIPI,≤ 0.25
25,YTVL,0.419

row,Variant,enrichment ratio
1,YQQA,≤ 0.25
2,YPVQ,≤ 0.25
3,WTNS,≤ 0.25
4,SDRH,≤ 0.25
5,YWHL,≤ 0.25
6,PDFE,≤ 0.25
7,PRFV,≤ 0.25
8,AWIV,≤ 0.25
9,QHHA,≤ 0.25
10,HNLH,≤ 0.25
11,GPRV,≤ 0.25
12,LVHN,≤ 0.25
13,KYQV,≤ 0.25
14,GWFA,≤ 0.25
15,EEYW,≤ 0.25
16,NMVW,≤ 0.25
17,EVQP,≤ 0.25
18,NPSA,≤ 0.25
19,IEWK,≤ 0.25
20,RWTP,≤ 0.25
21,ADYT,≤ 0.25
22,DGAP,≤ 0.25
23,TWNT,≤ 0.25
24,QIDV,≤ 0.25
25,RKTP,≤ 0.25

row,Variant,enrichment ratio
1,TRAH,≤ 0.25
2,IADN,≤ 0.25
3,MNAC,27.7
4,TALN,18.9
5,QMSL,1.28
6,VPWA,≤ 0.25
7,KLNK,≤ 0.25
8,WSKN,≤ 0.25
9,ACLI,5.06
10,DSAA,≤ 0.25
11,WKIL,≤ 0.25
12,HLAE,≤ 0.25
13,RKID,≤ 0.25
14,CTIS,≤ 0.25
15,VWGL,≤ 0.25
16,RTKN,≤ 0.25
17,SEQM,2.2
18,RFSQ,≤ 0.25
19,SGRA,≤ 0.25
20,DLID,≤ 0.25
21,VYDM,≤ 0.25
22,AMDL,≤ 0.25
23,NTCF,≤ 0.25
24,SHKA,≤ 0.25
25,WDPW,≤ 0.25

row,Variant,enrichment ratio
1,WHVM,≤ 0.25
2,PGYF,≤ 0.25
3,GSVP,≤ 0.25
4,LHFA,≤ 0.25
5,LPGQ,≤ 0.25
6,RYPN,≤ 0.25
7,WHGC,≤ 0.25
8,RPDR,≤ 0.25
9,HDQD,≤ 0.25
10,LSSA,≤ 0.25
11,RMHY,≤ 0.25
12,DHSV,≤ 0.25
13,EPVC,≤ 0.25
14,GGIE,≤ 0.25
15,ITHW,0.345
16,RTMA,≤ 0.25
17,FPDA,≤ 0.25
18,QFDP,≤ 0.25
19,IIVR,≤ 0.25
20,ETMR,≤ 0.25
21,FCFK,≤ 0.25
22,RRFM,≤ 0.25
23,SSHA,≤ 0.25
24,GFEG,≤ 0.25
25,GEFK,≤ 0.25

row,Variant,enrichment ratio
1,FDNM,≤ 0.25
2,PCSP,≤ 0.25
3,YISY,0.665
4,MFKH,≤ 0.25
5,WEMP,≤ 0.25
6,FHHR,≤ 0.25
7,NTTD,≤ 0.25
8,KSTR,≤ 0.25
9,WRFI,≤ 0.25
10,NWIC,≤ 0.25
11,RDLK,≤ 0.25
12,YMLM,≤ 0.25
13,IDMR,≤ 0.25
14,AKPC,≤ 0.25
15,GEPY,≤ 0.25
16,FAHR,≤ 0.25
17,DTIY,≤ 0.25
18,ITPR,≤ 0.25
19,GMAG,0.536
20,IMPV,≤ 0.25
21,VCGV,≤ 0.25
22,TKKF,≤ 0.25
23,GFRD,≤ 0.25
24,YYGC,≤ 0.25
25,SKPT,≤ 0.25

row,Variant,enrichment ratio
1,HQKM,≤ 0.25
2,VDGY,≤ 0.25
3,WQYG,≤ 0.25
4,SQFY,≤ 0.25
5,MQAA,≤ 0.25
6,VRQW,≤ 0.25
7,QLEG,≤ 0.25
8,LCGM,≤ 0.25
9,GNGL,6.28
10,KRYP,≤ 0.25
11,KVGY,≤ 0.25
12,HQVV,≤ 0.25
13,DGCY,≤ 0.25
14,GCVQ,≤ 0.25
15,VDIS,≤ 0.25
16,YPVH,≤ 0.25
17,GTYH,≤ 0.25
18,RLMM,≤ 0.25
19,IAYE,≤ 0.25
20,GGTP,≤ 0.25

# Reference: a collection of fitness landscapes (doi:10.1126/science.1257360)
